Assay results from PubChem BioAssay AID624296 (National Center for Advancing Translational Sciences (NCATS), 2012).
Screen size: about 350,000 compounds; about 9,900 (2.8%) were called active. This list was built around the results that the source calls inconclusive (neither active nor inactive); the mix of calls is not that of the screen. The call rests on the fitted dose curve; in most records, active means well fitted activation curve with a large enough effect; inconclusive means small, poorly fitted or top-dose-only effect; inactive means no such curve, though single readings can be large or run the other way. Potencies of inconclusive entries are left out as doubtful fits.
Potency means the concentration at half of the fitted maximal effect; tags describe the fitted curve by direction and shape.

Test: A quantitative high throughput screen for small molecules that induce DNA re-replication in MCF 10a normal breast cells. Further: nearly all actives have a fitted effect of over 50% in size.
Details: MCF 10A DNA re-replication, Hoechst nuclear intensity, 48 h; series mostly up to 46.1 µM
With `Cc1ccc(O)c(C(=O)c2cnc3c(c2)COc2ccccc2-3)c1` the Potency was inconclusive [activator, single point]. In the case of `C=CCNC(=O)/C(C#N)=C/c1ccc(OS(=O)(=O)c2ccc(C)cc2)c(OC)c1`, the Potency is reported as inconclusive [activator, single point]. For `O=C(NCCc1nc(-c2ccccc2)cs1)c1ccc(Br)cc1`, the Potency was inconclusive [activator, single point]. With `COc1ccc(C2N(c3cc(Cl)ccc3OC)C(=O)C3CCCN32)cc1` (stereo not drawn) the Potency was “inactive”. In the case of `Cc1cc(C)cc(NS(=O)(=O)c2ccc(NC(=O)c3ccccc3C(=O)O)cc2)c1`, the Potency is reported as inconclusive [activator, single point]. With `CCOC(=O)c1ccc(NC(=O)CSCc2ccco2)cc1` the Potency was inconclusive [activator, single point]. With `O=C(NCc1ccccc1)/C(=C/c1ccc(OC(F)F)cc1)c1ccccc1` the Potency was inconclusive [activator, full curve, poor fit]. In the case of `O=C(CSc1nccc(-c2ccc(Br)cc2)n1)NCCc1ccccc1`, the Potency is reported as inconclusive [activator, full curve, poor fit]. For `O=C(/C=C/c1ccccc1)NCCc1c[nH]c2ccccc12`, the Potency was inconclusive [activator, full curve, poor fit]. For `CNc1ccc(C=C2C=Cc3ccccc32)cc1`, the Potency was “inactive”. For `CC(=O)Nc1ccc(NC(=O)CCCCCN2C(=O)c3ccccc3C2=O)cc1`, the Potency was “inactive”. For `COC(=O)/C(=C\Nc1ccc(Cl)cc1Cl)NC(=O)c1ccc(Cl)cc1Cl`, the Potency was active: 11.6 µM. For `O=C(CN1CCN(c2ccccc2O)CC1)Nc1ccc2c(c1)CCC2`, the Potency was “inactive”. In the case of `COc1ccc(CCN2C(=O)c3[nH]nc(-c4ccccc4O)c3C2c2ccccc2)cc1OC` (stereo not drawn), the Potency is reported as inconclusive [activator, single point]. With `CN(C(=O)c1cccc(NC(=O)Cc2cccc(NC(=O)C3CCN(C(=O)C4CCCCC4)CC3)c2)c1)C1CC1` the Potency was “inactive”. For `COc1cccc(C2=NC(C)(C)NC(c3ccccc3O)C2)c1` (stereo not drawn), the Potency was inconclusive [activator, single point]. For `COc1cccc(CNC(=O)CCC2CCCN(C(=O)CCC(F)(F)F)C2)c1` (stereo not drawn), the Potency was “inactive”. With `Cc1cc(O)c(NC(=O)c2cc([N+](=O)[O-])ccc2Cl)cc1C` the Potency was inconclusive [activator, partial curve, poor fit]. For `CN(C)S(=O)(=O)N1CCCC(C(=O)c2ccc(-c3ccccc3)c(F)c2)C1` (stereo not drawn), the Potency was inconclusive [activator, partial curve, poor fit]. In the case of `C=CCOc1ccc(CN(C)C(=O)c2ccc(CNS(=O)(=O)c3ccc(C)c(C)c3)cc2)cc1`, the Potency is reported as inconclusive [activator, partial curve, poor fit]. With `CCCn1c(=O)n(C)c(=O)c2c(SCC(=O)NCc3ccco3)nc(C3CC3)nc21` the Potency was “inactive”. In the case of `C#CCOC(=O)CCC(=O)NCCc1ccccc1`, the Potency is reported as inconclusive [activator, single point]. In the case of `CCO[C@@H]1OC(C(=O)NCc2ccccc2)=C[C@H](c2cn(C(C)=O)c3ccccc23)[C@H]1CCCO`, the Potency is reported as “inactive”. In the case of `CC1CCc2cc(F)ccc2N1C(=O)CSc1nnc2c(n1)[nH]c1ccccc12` (stereo not drawn), the Potency is reported as inconclusive [activator, single point]. In the case of `CCC(C)c1ccc(NC(=S)Nc2ccc(OC)cc2)cc1` (stereo not drawn), the Potency is reported as inconclusive [activator, partial curve, poor fit]. With `CC(C)Cc1nnc(NC(=O)CCC(=O)N2CCN(c3ccc([N+](=O)[O-])cc3)CC2)s1` the Potency was “inactive”. With `Nn1c(SCc2cccc(F)c2)nnc1-c1cccnc1` the Potency was inconclusive [activator, single point]. With `CCOCCCN(Cc1ccco1)C(=O)c1cc2c(=O)[nH]c3ccc(C)cc3c2s1` the Potency was inconclusive [activator, single point]. For `N#Cc1ccc(N2Cc3ccccc3C2=NC(=O)c2cccnc2Cl)cc1`, the Potency was inconclusive [activator, single point]. In the case of `O=C(O)c1cccc(-n2cccc2C=C2C(=O)c3ccccc3C2=O)c1`, the Potency is reported as inconclusive [activator, single point]. In the case of `O=[N+]([O-])c1cc(Cl)ccc1N1CCCC1`, the Potency is reported as “inactive”. With `CCOC(=O)CC1(C)NC(=O)c2c(C)sc(C(=O)OCC)c2N1` (stereo not drawn) the Potency was “inactive”. In the case of `CC#CCN1c2ccccc2[C@]23C[C@@H](C(=O)OC)N=C2NC(C(=O)OC)=C(C(=O)OC)[C@H]13`, the Potency is reported as inconclusive [activator, single point]. In the case of `O=C(CSc1ccc2c(c1)OCCO2)Nc1ccc2c(c1)OCO2`, the Potency is reported as “inactive”. For `C[C@H](CO)N1C[C@H](C)[C@@H](CN(C)S(=O)(=O)c2ccccc2)Oc2c(cccc2N(C)C)C1=O`, the Potency was inconclusive [activator, full curve, poor fit]. With `CC(C)(C)c1ccc(-n2ncc3c2CCCC3NC(=O)C2(C(N)=O)CC2)cc1` (stereo not drawn) the Potency was inconclusive [activator, single point]. In the case of `CCCCOC(=O)c1ccc(NC(=O)C(=O)CC(=O)c2ccc(OC)cc2)cc1`, the Potency is reported as active: 14.6 µM. For `CC(C)C(C)(C#N)NC(=O)CSc1nc2scc(-c3ccccc3)c2c(=O)[nH]1` (stereo not drawn), the Potency was inconclusive [activator, single point]. With `COc1ccc2c(c1)-c1ccccc1S(=O)(=O)N2C(C)=O` the Potency was inconclusive [activator, single point]. For `CCn1c(SCC(=O)Nc2cccc(S(=O)(=O)N(C)c3ccccc3)c2)nnc1C1CC1`, the Potency was “inactive”. In the case of `N#CC(c1ccc(Cl)nn1)c1ccc(Cl)cc1Cl` (stereo not drawn), the Potency is reported as inconclusive [activator, single point]. With `O=C(NC1CCCC1)C(c1ccncc1)N(Cc1ccco1)C(=O)c1ccc(-c2ccccc2)[nH]1` (stereo not drawn) the Potency was inconclusive [activator, single point]. In the case of `COC(=O)c1c(NC(=O)CC2Sc3ccc(C(F)(F)F)cc3NC2=O)sc(C)c1C` (stereo not drawn), the Potency is reported as inconclusive [activator, full curve, poor fit].
